In PubChem BioAssay AID1347073 (National Center for Advancing Translational Sciences (NCATS), 2019):
The whole screen tested about 45,000 compounds, of which about 200 (0.44%) were called active. About 7% were inconclusive and are not listed. Calls follow the shape of the dose curve; as a rule, active = well fitted activation curve with a large enough effect; inconclusive = small, poorly fitted or top-dose-only effect; inactive = no such curve, though single readings can be large or run the other way. Some of the results follow.

Assay: qHTS of TDP-43 Inhibitors: NCGC Sytravon Library Screen; also: nearly all actives have a fitted effect of over 55% in size; as to growth rescue (activation): 0% is about no effect
Conditions: yeast TDP-43 toxicity rescue, BacTiter-Glo growth, 24 h; series mostly up to 46.1 µM; growth rescue (activation): at the top concentration
From the text: The goal of this project is to identify new chemical probes capable of reversing the toxicity associated with TDP-43 which is associated with frontotemporal lobar degeneration and amyotrophic lateral sclerosis. These compounds will provide a complementary approach to deciphering the tangled mechanisms of toxicity and protection that we have uncovered through genome-wide genetic screens and are beginning to uncover in a large-scale proteomics analysis with mass spectroscopy. To this end, a miniaturized assay was developed to be screened against the Molecular Libraries Small Molecule Repository (MLSMR) to discover TDP-43 inhibitors. Please note that in the set-up this yeast-based assay compounds that inhibit as TDP-43, have a read-out as activators. NIH Chemical Genomics Center [NCGC] NIH Molecular Libraries Probe Centers Network [MLPCN] Assay Submitter (PI): Susan Lindquist, Whitehead Institute/MIT MLPCN Grant: R21 NS060957
Dispense 2.5 microL yeast galactose medium per 1536-well plate, pin compound, dispense 2.5 microL TDP-43 expressing yeast in galactose medium at OD600=0.02 (pregrown in raffinose medium to mid-log phase) per well, incubate for 24 hr at 30 deg C, and cell growth will be measured using 5 microL of Bactiter/Glo reagent to entire plate and read using Luminescence Protocol in ViewLux.
Potency is read from the fitted curve at half-maximal effect.

Row | Compound | growth rescue (activation) | Potency
1 | O=c1c([N+](=O)[O-])cccn1Cc1cccc(Br)c1 | inactive: 17.2% | 
2 | CC1CCCN(c2ccc(C(=O)NCc3ccccc3)cn2)C1 (stereo not drawn) | inactive: 5.56% | 
3 | COc1ccc(CNc2ccc([N+](=O)[O-])cc2C)cc1 | inactive: -0.833% | 
4 | COc1ccccc1CN(C)C(=O)COC(=O)c1ccc(Cl)nc1 | inactive: 5.21% | 
5 | CCCOc1cccc(C(=O)NC(=S)Nc2cccc(NC(=O)c3ccccc3Cl)c2)c1 | inactive: -0.62% | 
6 | CC(C)(C)NC(=O)CN(CC1CCCO1)C(=O)CNS(=O)(=O)c1ccc(F)cc1 (stereo not drawn) | inactive: 6.54% | 
7 | Cc1nc2c(OCc3ccc(Cl)cc3)cccn2c1N(C)C(=O)CCC1CCCC1 | inactive: 15.4% | 
8 | COc1cc(CNC(=O)c2cc(-c3cc(OC)ccc3Cl)n[nH]2)cc(OC)c1 | inactive: 14.2% | 
9 | O=c1c2ccccc2c(=O)n2n1Cc1ccccc1C2 | inactive: 26.2% | 
10 | CCN1CCC(CNCc2cn(-c3ccc(OC)cc3)nc2-c2ccccc2Cl)C1 (stereo not drawn) | inactive: -5.05% | 
11 | C/C(=N\Nc1c(Cl)c(Cl)nc(C(=O)O)c1Cl)c1ccc(O)cc1 | inactive: -2.85% | 
12 | COc1cc(S(=O)(=O)N2CCC(N3CCCCC3)CC2)ccc1-n1cnnn1 | inactive: 6.09% | 
13 | COc1ccc(-c2[nH]ncc2CN(CC2CCC(=O)N2)C(C)C)cc1F (stereo not drawn) | inactive: 4.92% | 
14 | Cc1cc(NC(=O)COC(=O)[C@@H]2CCCN2C(=O)c2cccs2)no1 | inactive: 9.61% | 
15 | CCC(=O)NCCNc1nc2cc(C)cc(C)c2cc1C#N | inactive: 9.74% | 
16 | O=C(O)CSc1nnc(CSc2nc3ccccc3s2)n1-c1ccccc1 | inactive: -9.5% | 
17 | CC(=O)N1c2c(cc(Br)cc2S(=O)(=O)NCc2ccccc2)CC1C (stereo not drawn) | inactive: 1.39% | 
18 | CSc1cccc(CNC(=O)CC2C(=O)NCCN2CC(C)(C)C)c1 (stereo not drawn) | inactive: -4.2% | 
19 | CCCSc1ncc(Cl)c(C(=O)Nc2c(C(=O)c3ccc(F)cc3)oc3ccccc23)n1 | inactive: 8.56% | 
20 | Cc1cccc(NC(=O)c2cc(Cl)nc3ccccc23)c1 | inactive: 27.1% | 
21 | O=C(O)c1ccccc1CSc1nnnn1-c1ccccc1 | inactive: 3.14% | 
22 | Cc1ccc(-n2c(C)cc(/C=C3/C(=N)N4C(c5ccccc5)=CSC4=NC3=O)c2C)cc1 | inactive: 5.36% | 

Row | Compound | growth rescue (activation) | Potency
23 | Cc1c(C#N)c(O)[nH]c(=O)c1N=Nc1ccc(Br)cc1C(=O)O | inactive: 14.8% | 
24 | Cc1ccc(-c2nnc(COC(=O)c3cc(=O)[nH]c4ccccc34)o2)cc1 | inactive: 5.88% | 
25 | COc1ccc(C(=O)NNC2=CC(=O)CC(C)(C)C2)cc1OC | inactive: 11% | 
26 | COc1ccc(C(C)C)cc1S(=O)(=O)N1CCC(C(=O)NCC2CCCO2)CC1 (stereo not drawn) | inactive: 19.3% | 
27 | O=C(NCc1ccco1)C1CCCN1C(=O)Nc1ccc(Cl)cc1 (stereo not drawn) | inactive: -21.5% | 
28 | COc1ccc(Cl)cc1C(=O)Nc1ccc(CN2CCCCC2)cc1 | inactive: 0.654% | 
29 | COc1ccc(CNC(=O)c2cccc(S(=O)(=O)N3CCN(c4ccc(F)cc4)CC3)c2)cc1 | inactive: -8.02% | 
30 | CN(C)/C=C/C(=O)c1ccncc1 | inactive: 5.83% | 
31 | O=C1NCCCC1C(=O)N1CCCCC1 (stereo not drawn) | inactive: 2.03% | 
32 | COc1cc(/C=C2\SC(=S)N(CC(=O)Nc3ccccn3)C2=O)cc(OC)c1OC | inactive: 19.6% | 
33 | O=C(C1CC(=O)N(c2ccc(F)cc2)C1)N1CCOCC1 (stereo not drawn) | inactive: 3.27% | 
34 | COc1ccc(/C=C(/C#N)C(=O)Nc2cccc([N+](=O)[O-])c2)cc1C(=O)O | inactive: 1.03% | 
35 | CCc1ccccc1NC(=O)Cc1ccc(-n2cccc2)cc1 | inactive: 23.9% | 
36 | Cc1c(C)n(-c2ccc(Cl)cc2)c2ncnc(N)c12 | inactive: -4.63% | 
37 | CCc1nc2c(OCc3ccc(C(=O)N(C)C)cc3)cccn2c1N(C)C(=O)c1ccc(C)cc1 | inactive: 7.05% | 
38 | COc1ccc(S(=O)(=O)N2CCC(C(=O)NCc3ccncc3)CC2)cc1C | inactive: -13.1% | 
39 | COCCN1C(=O)C(=O)/C(=C(/O)c2ccc(S(=O)(=O)N3CCOCC3)cc2)C1c1cccc(Cl)c1 (stereo not drawn) | inactive: -9.45% | 
40 | CC(CCc1ccccc1)NC(=O)C(Cc1ccccc1)NC(N)=O (stereo not drawn) | inactive: -12.7% | 
41 | CCOCCCNC(=O)c1cc2c(=O)[nH]c3ccccc3c2s1 | inactive: -3.92% | 
42 | O=C(OCc1ccccc1F)c1cnc(Cl)c(Cl)c1 | inactive: 15.4% | 
43 | O=C(c1ccccc1)N1N=C(c2ccccc2)CC1c1cccs1 (stereo not drawn) | inactive: 3.95% | 
44 | CCC1(CC)NC(=O)N(CC(=O)N2CCc3ccccc32)C1=O | inactive: -11.2% | 

Row | Compound | growth rescue (activation) | Potency
45 | COc1cc(/C=N/N2C(=O)C3C4C=CC(CC4)C3C2=O)ccc1O (stereo not drawn) | inactive: -12.8% | 
46 | CC(C)CCNC(=O)c1sc2ccc(S(=O)(=O)N3CCCCC3)cc2c1N | inactive: 13.6% | 
47 | N#Cc1ccc(-c2ccc3nccn3c2)cc1 | inactive: 6.86% | 
48 | COc1cc(/C=N/NC(=O)c2ccc(-n3cccc3)cc2)ccc1O | inactive: 15.8% | 
49 | CCOc1ccc(C(O)(CCC(C)C)C(CN2CCOCC2)c2ccccc2)cc1 (stereo not drawn) | inactive: 9.02% | 
50 | COc1cc(CNCCc2ccccc2)cc(Cl)c1OCc1ccccc1 | inactive: 8.79% | 
51 | COc1ccc(N=Cc2cc(Cl)ccc2O)cc1Cl | inactive: 2.04% | 
52 | CCCc1cc(=O)[nH]c(SCC(=O)Nc2nc3ccc(OCC)cc3s2)n1 | inactive: -3.21% | 
53 | CC(C)c1ccc(NC(=S)NCCc2c[nH]c3ccccc23)cc1 | inactive: 29.8% | 
54 | Cc1ccc(Cl)cc1NC(=O)N1CCc2cc(S(=O)(=O)N3CCC(C)CC3)ccc21 | inactive: -5.71% | 
55 | CCOc1ccc(NC(=O)C(=O)NCCN2CCN(C(=O)c3ccc(C)cc3)CC2)cc1 | inactive: 15.5% | 
56 | O=C(CSc1nnc(CSc2nc3ccccc3s2)o1)NC1CCCCC1 | inactive: -1.57% | 
57 | CCOC(=O)N1CCN(C(=O)CCC2CCCC2)CC1 | inactive: 7.36% | 
58 | CN(Cc1cccc(F)c1)C(=O)CNS(=O)(=O)c1ccc2ccccc2c1 | inactive: 7.8% | 
59 | COc1ccc(C(=O)Nc2ccc3c(c2)OCCO3)cc1[N+](=O)[O-] | inactive: 7.57% | 
60 | O=C(Nc1ccc(NC(=O)c2ccccc2Cl)nc1)c1ccco1 | inactive: -6.63% | 
61 | Cc1ccc(/C=N/NC(=O)c2ccoc2C)s1 | inactive: 12.1% | 
62 | CC(Sc1nnc(NCc2ccccc2)s1)C(=O)Nc1ccc2c(c1)C(=O)c1ccccc1C2=O (stereo not drawn) | inactive: 20.1% | 
63 | Cc1nnsc1Sc1ccccc1 | inactive: 10% | 
64 | Cn1c(COc2ccccc2)nnc1SCC(=O)Nc1ccc(N2CCOCC2)cc1 | inactive: 0.985% | 
65 | COc1ccccc1C1=NC(c2ccccc2)CN1c1ccccc1 (stereo not drawn) | inactive: 7.61% | 
66 | Cc1ccc(S(=O)(=O)N2CCN(S(=O)(=O)N3CCC(C)CC3)CC2)cc1C | inactive: -8.49% | 

Row | Compound | growth rescue (activation) | Potency
67 | CCc1[nH]nc(C(=O)N2CCCC(Nc3ccc(C(C)C)cc3)C2)c1C (stereo not drawn) | inactive: -2.5% | 
68 | Cc1ccc2nc(Nc3ccc(Br)cc3)nc(-c3ccccc3)c2c1 | inactive: 11.4% | 
69 | Cc1ccc(C(=O)NCCCNC(=O)c2ccccc2C)cn1 | inactive: -13.4% | 
70 | O=C(NCC1COCCO1)c1cc(COc2c(F)cccc2F)on1 (stereo not drawn) | inactive: -5.85% | 
71 | O=C(NCc1ccccc1)C(c1cccnc1)N(C(=O)c1ccccn1)c1ccccc1F (stereo not drawn) | inactive: -2.09% | 
72 | c1ccc2c(c1)c1ccccc1n1c(-c3ccc4c(c3)OCO4)nnc21 | inactive: 13.2% | 
73 | CCC(OC(=O)CNS(=O)(=O)c1ccccc1)C(=O)c1ccccc1 (stereo not drawn) | inactive: -15.5% | 
74 | O=C(CSc1ccccn1)Nc1ccc2c(c1)oc1ccccc12 | inactive: 4.78% | 
75 | O=C(Nc1ccccc1Cl)NC1(C(=O)NCc2cccnc2)CCCCC1 | inactive: -2.1% | 
76 | CCC1CCCCN1C(=O)CSc1n[nH]c(N)n1 (stereo not drawn) | inactive: 4.52% | 
77 | CCN(CC)S(=O)(=O)c1cc(NS(=O)(=O)c2cccc(Cl)c2Cl)ccc1C | inactive: 11.7% | 
78 | Cc1ccc(S(=O)(=O)N2CCN(CN3C(=O)CC4(CCCC4)C3=O)CC2)cc1 | inactive: 11.8% | 
79 | Cc1ccc(S(=O)(=O)N2CCN(C3CC4CCC3C4)CC2)cc1 (stereo not drawn) | inactive: -2.68% | 
80 | Cc1nc2nc(SCC(=O)c3cccc([N+](=O)[O-])c3)[nH]c2cc1Br | inactive: 7.04% | 
81 | COc1cccc(C(C(=O)NC2CCCC2)N(C(=O)c2ccco2)c2ccc(-n3cnnn3)c(C)c2)c1OC (stereo not drawn) | inactive: 3.28% | 
82 | COC(=O)/C=C1/N/C(=N\c2nc(C)cc(C)n2)N(c2ccc(Cl)cc2)C1=O | inactive: 13.6% | 
83 | COc1ccc(Cc2nc(C(=O)Nc3ccccc3)cs2)cc1 | inactive: 19.9% | 
84 | C=CCn1c(=S)[nH]c2cc(C(=O)Nc3ccc(OC)c(OC)c3)ccc2c1=O | inactive: 15% | 
85 | O=C(NCC1COc2ccccc2O1)c1c[nH]c2ccc(S(=O)(=O)N3CCOCC3)cc2c1=O (stereo not drawn) | inactive: 12.3% | 
86 | COc1ccc(CNC(=O)CCSCc2ccccc2Cl)c(OC)c1 |  | active: 14.1 µM
87 | Cc1ccc(CCN2CC(C(=O)NCCN(C)C)CC2=O)cc1 (stereo not drawn) | inactive: 1.31% | 
88 | CC(=O)N1CCN(C(=O)c2ccc(OC3CCN(Cc4ccccn4)CC3)cc2)CC1 | inactive: 1.12% | 

Row | Compound | growth rescue (activation) | Potency
89 | O=C(CSc1nc2ncccc2[nH]1)NC1CCCCC1 | inactive: -16.4% | 
90 | Cc1ccc(NC(=O)c2ccccc2NC(=O)Cc2ccccc2)cc1 | inactive: 8.06% | 
91 | CCN1CCN(CC(=O)Nc2ccc(C(C)=O)cc2)CC1 | inactive: 7.31% | 
92 | Cc1cccc(C)c1OCc1nc2ccccc2c(=O)n1/N=C/c1c[nH]c2ccccc12 | inactive: 8.8% | 
93 | COc1ccc(OC)c(NC(=O)c2cc3ccccc3cc2OC)c1 | inactive: 26.2% | 
94 | Cc1cc(C)c(C)c(S(=O)(=O)N2CCC(C(=O)Nc3ccccc3N3CCOCC3)CC2)c1C | inactive: 8.87% | 
95 | CCn1cc(Br)c(C(=O)Nc2ccccc2C(=O)OC)n1 | inactive: 6.27% | 
96 | O=C(CN1C(=O)c2cccc3cccc1c23)NC1CCCC1 | inactive: -20% | 
97 | O=C(CCN1C(=O)/C(=C/c2ccco2)SC1=S)Nc1ccc(C(=O)O)c(O)c1 | inactive: 4.71% | 
98 | Cc1nc(N2CCN(S(=O)(=O)c3ccc(Br)cc3)CC2)c2c(C)c(C)sc2n1 | inactive: -6.27% | 
99 | CC1CCCN(S(=O)(=O)c2cccc(C(=O)NCC3CCCO3)c2)C1 (stereo not drawn) | inactive: -3.11% | 
100 | O=C(c1ccc(F)cc1)C1CCN(Cc2ccc(F)cc2)CC1 | inactive: 9.42% | 
101 | O=C(O)c1ccc(CN2CCOCC2)o1 | inactive: 6.92% | 
102 | COc1ccccc1-c1cnc(C(O)c2cc(Cl)cc(Cl)c2)[nH]1 (stereo not drawn) | inactive: 8.84% | 
103 | CC(C)CNC(=O)Cn1nc(C(F)(F)F)c2c1CCCC2 | inactive: 13.7% | 
104 | CN1CCN(CCCNCc2cn(CCC#N)c3ccccc23)CC1 | inactive: -1.4% | 
105 | COc1ccc(Cc2nc3c4cnn(-c5ccccc5Br)c4ncn3n2)cc1 | inactive: 11.3% | 
106 | CCc1ccc2c(c1)C(c1ccc([N+](=O)[O-])cc1)=NNC(c1ccccc1)=N2 | inactive: 2.21% | 
107 | COc1ccc(C(C(=O)NC(C)(C)C)N(Cc2ccco2)C(=O)CCC(=O)Nc2ccccn2)cc1 (stereo not drawn) | inactive: -1.48% | 
108 | COc1ccc(-c2ccnc3c(C(=O)O)cnn23)cc1 | inactive: 19.8% | 
